# Laboratory results: PubChem BioAssay (NCATS)
# Where “and” joins values, the source holds several entries; their conditions need not be identical. Equal values may be shown once. This list was built around the results that the source calls inconclusive (neither active nor inactive); the mix of calls is not that of the screen. A potency beside an inconclusive call is a rough fit, not a confirmed value. Calls of active or inactive are those of the source. Calls follow the shape of the dose curve; as a rule, active = well fitted cell-killing curve with a large enough effect; inconclusive = small, poorly fitted or top-dose-only effect; inactive = no such curve, though single readings can be large or run the other way.
# Experiment: qHTS of pediatric cancer cell lines to identify multiple opportunities for drug repurposing: Primary screen for NB1643 cells (AID 1347099); also: nearly all actives have a fitted effect of over 50% in size
# Conditions: NB1643 neuroblastoma viability, CellTiter-Glo luminescence, 48 h; series mostly up to 46 µM; activity change, negative = cytotoxic: at the top concentration
# Source text: Drug repurposing or repositioning has been offered as a strategy for drug development in oncology programs. This approach has special potential for childhood cancers and other rare or orphan diseases, where the expected return on new drug development has been a disincentive to pharmaceuticals. […] In this project we exploit the poly-pharmacology of drugs to discover new indications via phenotypic screening of a panel of 19 well-characterized cell lines derived from solid tumors seen in children and adolescents. The goal is to identify approved drugs with previously unrecognized anticancer properties that has the potential to reveal new mechanisms and biological processes involved in carcinogenesis or drug resistance. We employed a titration-based paradigm (quantitative high-throughput screening or qHTS), where all compounds were tested at multiple concentrations for their effect on cell viability. Concentration-response curves (CRCs) were derived directly from the primary screen, and both potency and efficacy values were used to identify compounds with robust bioactivity profiles. We screened the NIH Chemical Genomics Center (NCGC) Pharmaceutical Collection (NPC) and Mechanism Interrogation Plate (MIPE) small molecule collections of approved and investigational compounds against these cell lines; and measured metabolically active cells after 48 hours of compound treatment as a proxy for cell viability. […] Assay Submitter: Nathalia J. Martinez, National Center for Advancing Translational Sciences, National Institutes of Health, Rockville, MD, USA; email: natalia.martinez@nih.gov Shen, M et al. Quantitative high-throughput phenotypic screening of pediatric cancer cell lines identifies multiple opportunities for drug repurposing. Oncotarget 2017 Dec 19;9(4):4758-4772. PMID 29435139.
# The cells were obtained from University of North Carolina (UNC), Pediatric Preclinical Testing Program (PPT), and Coriell Institute (CI). qHTS cell viability assay: Cells were assayed in growth media at a density of 500-1,000 cells/well. Five microliters of cells were dispensed into 1,536-well, white, solid-bottom, TC-treated plates (Greiner Bio One) using a multidrop dispenser and incubated at 37 degrees C, 5% CO2, under a humidified atmosphere for 5 hours. Twenty-three nanoliters of compounds and controls (neutral control DMSO or positive control bortezomib at final concentration of 2.3 µM) were subsequently transferred by Kalypsys pintool. For primary screens, the MIPE collection was tested at 11-point dilutions (final concentrations range from 0.78 nM to 46 µM) and the NPC collection at 8-point dilutions (final concentrations range from 0.59 nM to 46 µM). Compounds tested in follow-up screens were assayed at 11-point dilutions. Cells were incubated for 48 hours, followed by addition of 3 µL of CellTiter-Glo (Promega). After a 15 min incubation at room temperature, samples were analyzed for luminescence intensity using a ViewLux High-throughput CCD imager equipped with clear filters.
# Potency is read from the fitted curve at half-maximal effect; tags tell the direction and shape of the fitted curve.
SMILES,Potency,"activity change, negative = cytotoxic"
CN1CCCN(C(=O)c2cccc(-c3ccc(C=C4C(=O)Nc5ccc(Cl)cc54)o3)c2)CC1,active: 5.9 µM,–
Cc1csc(-c2nnc(Nc3ccc(Oc4ncccc4-c4ccnc(N)n4)cc3)c3ccccc23)c1,"inconclusive: 29.6 µM [cytotoxic, partial curve, poor fit]",–
COc1ccc(CCN2CCN(CCCc3ccccc3)CC2)cc1OC,"inconclusive: 20.9 µM [cytotoxic, single point]",–
CCN(CC)Cc1ccc2cc(COC(=O)Nc3ccc(C(=O)NO)cc3)ccc2c1,active: 1.18 µM,–
Nc1nc(F)nc2c1ncn2[C@@H]1O[C@H](CO)[C@@H](O)[C@@H]1O,"inconclusive: 21.1 µM [cytotoxic, single point]",–
CC(=O)OCCN1C(=O)c2c(C)nc3ccc(S(=O)(=O)N4CCOCC4)cc3c2C1=O,"inconclusive: 33.2 µM [cytotoxic, single point]",–
CNC(=O)c1c(-c2ccc(F)cc2)oc2cc(N(CCO)S(C)(=O)=O)c(C3CC3)cc12,"inconclusive: 23.5 µM [cytotoxic, single point]",–
CCCCn1c(=O)n(Cc2ccccc2F)c(=O)c2[nH]c(Cc3ccc(NC(C)=O)cc3)nc21,"inconclusive: 9.35 µM [cytotoxic, partial curve]",–
CC(C)Oc1ccc(C(=O)N[C@H](CNC(=O)CN(C)C)Cc2ccc(-c3cn4cccc([C@H](C)O)c4n3)cc2)cc1Cl,"inconclusive: 1.66 µM [cytotoxic, full curve]",–
CCc1cc(-c2n[nH]c(C)c2-c2ccc3c(c2)OCCO3)c(O)cc1O,active: 10.5 µM,–
N[C@@H](Cc1ccc(O)c(O)c1)C(=O)O,"inconclusive: 18.7 µM [cytotoxic, partial curve]",–
CC[C@H](C)C(=O)O[C@H]1C[C@H](O)C=C2C=C[C@H](C)[C@H](CC[C@@H](O)C[C@@H](O)CC(=O)O)[C@H]21,"inconclusive: 26.4 µM [cytotoxic, single point]",–
CC1=CC(=O)c2ccccc2C1=O,"inconclusive: 18.8 µM [cytotoxic, partial curve]",–
Cc1cc2nc3c(=O)[nH]c(=O)nc-3n(CC(O)C(O)C(O)CO)c2cc1C (stereo not given),active: 23.5 µM,–
Cc1cccc(CN2CCN(C(c3ccccc3)c3ccc(Cl)cc3)CC2)c1 (stereo not given),"inconclusive: 21.1 µM [cytotoxic, single point] and inconclusive: 20.9 µM [cytotoxic, partial curve]",–
CCCCCOC(=O)Nc1nc(=O)n([C@@H]2O[C@H](C)[C@@H](O)C2O)cc1F (stereo not given in full),"inconclusive: 20.9 µM [cytotoxic, partial curve, poor fit]",–
CCCCCCOC(=O)N=C(N)c1ccc(NCc2nc3cc(C(=O)N(CCC(=O)OCC)c4ccccn4)ccc3n2C)cc1,"inconclusive: 18.7 µM [cytotoxic, partial curve, poor fit]",–
C[C@H]1O[C@H](O[C@H]2[C@H](O)[C@@H](O)[C@@H](O[C@H]3[C@H](O)[C@@H](O)C(O)O[C@H]3CO)O[C@H]2CO)[C@H](O)[C@@H](O)[C@H]1N[C@H]1C=C(CO)[C@@H](O)[C@H](O)[C@@H]1O (stereo not given in full),"inconclusive: 20.9 µM [cytotoxic, single point]",–
O=C(NC1CCNCC1)c1[nH]ncc1NC(=O)c1c(Cl)cccc1Cl,"inconclusive: 0.264 µM [cytotoxic, full curve]",–
CC(C)(Oc1ccc(C2CC2(Cl)Cl)cc1)C(=O)O (stereo not given),"inconclusive: 6.79 µM [cytotoxic, partial curve]",–

SMILES,Potency,"activity change, negative = cytotoxic"
Cc1cc2c(F)c(Oc3ncnn4cc(OC[C@@H](C)O)c(C)c34)ccc2[nH]1,"inconclusive: 37.2 µM [cytotoxic, single point]",–
OC[C@H](Cc1ccccc1)Nc1nc(Oc2ccc3c(c2)CCC3)nc2c1ncn2Cc1ccc(-c2ccccc2)cc1,"inconclusive: 20.9 µM [cytotoxic, single point]",–
CC(C)OC(=O)OCOP(=O)(CO[C@H](C)Cn1cnc2c(N)ncnc21)OCOC(=O)OC(C)C,inactive,–
O=c1[nH]cnc2[nH]ncc12,inactive,–
Cn1c(=O)c2c(ncn2CC(O)CO)n(C)c1=O (stereo not given),"inconclusive: 8.33 µM [cytotoxic, full curve]",–
COc1ccc(-c2cc(=O)c3c(O)cc(O[C@@H]4O[C@H](CO[C@@H]5O[C@@H](C)[C@H](O)[C@@H](O)[C@@H]5O)[C@@H](O)[C@H](O)[C@@H]4O)cc3o2)cc1O,active: 16.6 µM,–
CC(=O)O[C@H]1C(=O)[C@@]2(C)C([C@H](OC(=O)c3ccccc3)[C@]3(O)C[C@H](OC(=O)[C@H](O)[C@@H](NC(=O)c4ccccc4)c4ccccc4)C(C)=C1C3(C)C)[C@]1(OC(C)=O)CO[C@@H]1C[C@@H]2O (stereo not given in full),"inconclusive: 33.2 µM [cytotoxic, partial curve, poor fit]",–
CC(C)(N)C(=O)N[C@H](COCc1ccccc1)C(=O)N1CCC2(CC1)CN(S(C)(=O)=O)c1ccccc12,active: 23.5 µM,–
O=C(O)CCc1ccc(NCc2cccc(Oc3ccccc3)c2)cc1,–,inactive: -14.3%
CNC(=O)c1ccc2c(C(=Nc3cccc(CN(C)C)c3)c3ccccc3)c(O)[nH]c2c1,active: 16.6 µM,–
Cc1cnc(-c2cc(N3CCN(C(=O)CCS(C)(=O)=O)CC3)ncc2Cl)c(C)c1,"inconclusive: 37.2 µM [cytotoxic, single point]",–
Cc1cnc(NC(=O)C2=C(O)c3ccccc3S(=O)(=O)N2C)s1,"inconclusive: 33.2 µM [cytotoxic, single point]",–
CC(=O)O[C@@]12CO[C@H]1C[C@H](O)[C@@]1(C)C(=O)[C@H](O)C3=C(C)[C@@H](OC(=O)C(O)[C@@H](NC(=O)OC(C)(C)C)c4ccccc4)C[C@@](O)([C@@H](OC(=O)c4ccccc4)[C@@H]21)C3(C)C (stereo not given in full),"inconclusive: 20.9 µM [cytotoxic, partial curve]",–
Cc1cn(-c2cc(NC(=O)c3ccc(C)c(Nc4nccc(-c5cccnc5)n4)c3)cc(C(F)(F)F)c2)cn1,–,inactive: -21.3%
O=C(O)c1ccc(-n2nc(-c3ccccc3O)nc2-c2ccccc2O)cc1,"inconclusive: 16.8 µM [cytotoxic, partial curve] and inconclusive: 20.9 µM [cytotoxic, partial curve]",–
COc1cc2c(cc1-c1c(C)noc1C)ncc1[nH]c(=O)n([C@H](C)c3ccccn3)c12,active: 11.8 µM,–
CN(C(=O)c1ccc(F)cc1C(F)(F)F)C1CCN(c2nnc(-c3ccnn3C)c3ccccc23)CC1,active: 4.18 µM,–
CO[C@@H]1C(N(C)C(=O)c2ccccc2)C[C@H]2O[C@]1(C)n1c3ccccc3c3c4c(c5c6ccccc6n2c5c31)C(=O)NC4=O (stereo not given in full),"inconclusive: 0.743 µM [cytotoxic, full curve]",–
N#Cc1c(NC(=O)c2cccc3ccccc23)sc2c1CCCC2,active: 4.69 µM,–
Cc1cc(-c2ncc(CC(=O)Nc3ccc(-c4cnccn4)cn3)cc2C)ccn1,active: 16.6 µM,–
